Measured values as given in patent publication US20260184783A1 (Merck Sharp & Dohme, published 2026).

What was measured:
[1] = target: T1, human PD-1 expressed on cells (human, UniProt Q15116 25-288); test: flow cytometry competition: blockade of human PD-L1-hFc binding to CHO-K1 cells expressing human PD-1; PE goat anti-human IgG
T1 construct: the transgene used on the cells is not tied to it by number; also called hPD-1; CHO.hPD-1
Protocol: (§1) Ligand competition assays were performed on human PD-1 over-expressing CHO cells. A Nanobody dilution series was prepared in assay buffer: PBS/10% FBS/0.05% sodium azide. […] 2×10⁴ cells/well were seeded in V-bottom 96-well plates and resuspended in 200 μL/well of the Nanobody/ligand dilution. After 90 minutes incubation at 4° C., the cells were washed with 100 μL/well assay buffer and resuspended in 100 μL/well PE-labeled Goat anti-human IgG (Southern Biotech, 2043-09). Samples were incubated for 30 minutes at 4° C., washed, and resuspended in 100 μL/well of 5 nM TOPRO3 (LifeTechnologies, T3606) solution before analysis on FACS CANTO II (BD).

[2] = target: T2, rhesus/cynoLAG-3 expressed on CHO cells (rhesus/cynomolgus monkey, UniProt A0A5F8A874 23-533); test: flow cytometry on CHO-K1 cells expressing rhesus/cyno LAG-3; ABH0074 + PE goat anti-mouse
T2 construct: also called CHO.rhesus/cynoLAG3; rhesus/cynomolgous monkey LAG-3
T2 sequence: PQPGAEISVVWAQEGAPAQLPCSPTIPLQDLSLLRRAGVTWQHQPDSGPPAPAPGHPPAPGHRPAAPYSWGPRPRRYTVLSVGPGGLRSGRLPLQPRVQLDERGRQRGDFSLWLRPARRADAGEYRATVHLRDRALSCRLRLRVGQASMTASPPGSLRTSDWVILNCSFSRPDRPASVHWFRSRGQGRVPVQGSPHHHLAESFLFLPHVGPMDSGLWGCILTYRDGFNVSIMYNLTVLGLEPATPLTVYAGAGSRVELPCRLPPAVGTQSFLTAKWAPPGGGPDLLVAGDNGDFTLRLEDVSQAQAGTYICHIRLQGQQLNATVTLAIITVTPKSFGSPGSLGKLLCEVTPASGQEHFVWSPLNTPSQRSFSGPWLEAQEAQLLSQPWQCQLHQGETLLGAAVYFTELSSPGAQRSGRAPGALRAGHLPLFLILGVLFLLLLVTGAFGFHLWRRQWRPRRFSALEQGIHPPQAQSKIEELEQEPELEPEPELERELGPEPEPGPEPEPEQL
Protocol: (§2) A Nanobody dilution series was prepared in assay buffer: PBS/10% FBS/0.05% sodium azide. 1×10⁵ cells/well were transferred to a 96-well V-bottom plate and resuspended in 100 μL Nanobody dilution.

[3] = target: T3, Rhesus Serum Albumin (rhesus, UniProt Q28522 17-600); test: SPR, Biacore T100; Rhesus Serum Albumin immobilised on CM5, Nanobody as analyte; Langmuir with mass transport
T3 construct: also called RhSA; rhesus albumin
Protocol: (§3) Kinetic analysis of the Nanobodies was performed by SPR technology, using the Biacore T100 instrument (GE Healthcare). […] After immobilization, surfaces were deactivated with 1M ethanolamine/HCl (pH 8.5). The flow rate during the sensor preparation was set on 5 μl/min.
(§4) Sensorgram processing and data analysis was performed with Biacore T100 Evaluation Software Version 2.0.4 (GE Healthcare). […] Processed curves were evaluated via fitting with the model ‘Langmuir with Mass Transport’.

[4] = target: T1, human PD-1 expressed on cells; test: flow cytometry competition: blockade of human PD-L2-hFc binding to CHO-K1 cells expressing human PD-1; PE goat anti-human IgG
Protocol: as §1

[5] = target: T1, human PD-1 expressed on cells; test: flow cytometry on CHO-K1 cells expressing human PD-1; ABH0074 + PE goat anti-mouse
Protocol: as §2

[6] = target: T1, human PD-1 expressed on cells; test: flow cytometry competition: blockade of human PD-L1-hFc binding to CHO-K1 cells expressing human PD-1; PE goat anti-human IgG; remark: listed apart in the source
Protocol: as §1

[7] = target: T4, extracellular domain of LAG-3 (1-477) fused to the EA subunit (human, UniProt P18627 23-477); test: cell-based or functional assay
T4 sequence (looked up): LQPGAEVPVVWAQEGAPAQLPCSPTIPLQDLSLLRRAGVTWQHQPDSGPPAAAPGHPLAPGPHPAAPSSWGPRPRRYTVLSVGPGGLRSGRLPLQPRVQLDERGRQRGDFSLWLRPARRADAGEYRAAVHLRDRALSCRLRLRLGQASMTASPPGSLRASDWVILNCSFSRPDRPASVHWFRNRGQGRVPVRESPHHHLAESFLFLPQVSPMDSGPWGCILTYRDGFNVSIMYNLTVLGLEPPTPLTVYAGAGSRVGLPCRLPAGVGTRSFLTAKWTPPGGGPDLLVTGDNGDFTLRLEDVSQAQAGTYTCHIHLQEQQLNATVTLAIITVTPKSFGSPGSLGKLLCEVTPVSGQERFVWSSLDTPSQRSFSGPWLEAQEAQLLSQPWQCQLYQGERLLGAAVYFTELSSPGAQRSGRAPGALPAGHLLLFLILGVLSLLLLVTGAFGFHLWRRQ

[8] = target: extracellular domain of PD-1 (1-199) fused to the PK subunit (human, UniProt Q15116 partial chain); test: cell-based or functional assay
[9] = target: MSA; test: SPR, Biacore T100; MSA block of Table G, Nanobody as analyte
[10] = target: T3, Rhesus Serum Albumin; test: SPR, Biacore T100; Rhesus Serum Albumin immobilised on CM5, Nanobody as analyte; Langmuir with mass transport; remark: listed apart in the source
Protocol: as §3, §4

[11] = target: T5, human LAG-3 expressed on cells (human, UniProt P18627 23-525); test: cell-based or functional assay
T5 sequence: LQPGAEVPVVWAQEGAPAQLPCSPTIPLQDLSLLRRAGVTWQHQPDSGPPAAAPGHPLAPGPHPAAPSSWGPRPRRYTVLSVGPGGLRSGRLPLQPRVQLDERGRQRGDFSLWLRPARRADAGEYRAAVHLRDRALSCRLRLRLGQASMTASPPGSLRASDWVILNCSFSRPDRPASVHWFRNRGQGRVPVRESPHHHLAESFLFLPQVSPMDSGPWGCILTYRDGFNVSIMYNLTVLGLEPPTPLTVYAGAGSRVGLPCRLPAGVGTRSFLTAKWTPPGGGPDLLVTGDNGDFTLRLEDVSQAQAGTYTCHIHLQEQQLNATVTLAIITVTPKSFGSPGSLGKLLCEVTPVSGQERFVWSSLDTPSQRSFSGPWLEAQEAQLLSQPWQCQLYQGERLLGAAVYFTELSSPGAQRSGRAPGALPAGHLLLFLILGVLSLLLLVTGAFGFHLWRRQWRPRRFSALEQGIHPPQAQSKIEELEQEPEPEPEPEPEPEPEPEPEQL

[12] = target: T1, human PD-1 expressed on cells; test: cell-based or functional assay
[13] = target: T5, human LAG-3 expressed on cells; test: flow cytometry on CHO-K1 cells expressing human LAG-3; ABH0074 + PE goat anti-mouse
Protocol: as §2

[14] = target: T5, human LAG-3 expressed on cells; test: cell-based or functional assay; remark: listed apart in the source

T3 sequence (Q28522 17-600 limits assumed): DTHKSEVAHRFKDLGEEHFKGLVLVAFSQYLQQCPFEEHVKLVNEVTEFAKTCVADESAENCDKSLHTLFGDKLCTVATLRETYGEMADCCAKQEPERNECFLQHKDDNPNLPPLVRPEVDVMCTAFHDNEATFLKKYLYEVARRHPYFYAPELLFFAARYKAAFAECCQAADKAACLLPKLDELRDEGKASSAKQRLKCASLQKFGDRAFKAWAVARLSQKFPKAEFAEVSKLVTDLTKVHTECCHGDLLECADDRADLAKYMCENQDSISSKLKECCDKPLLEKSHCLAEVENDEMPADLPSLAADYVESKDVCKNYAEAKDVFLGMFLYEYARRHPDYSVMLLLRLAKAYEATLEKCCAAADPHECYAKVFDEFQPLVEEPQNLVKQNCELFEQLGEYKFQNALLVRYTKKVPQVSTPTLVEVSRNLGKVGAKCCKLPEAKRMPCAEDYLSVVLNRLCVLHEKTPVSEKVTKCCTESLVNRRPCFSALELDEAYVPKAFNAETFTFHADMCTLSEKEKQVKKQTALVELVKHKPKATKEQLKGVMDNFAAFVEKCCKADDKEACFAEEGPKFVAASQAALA
T1 sequence (Q15116 25-288 limits assumed): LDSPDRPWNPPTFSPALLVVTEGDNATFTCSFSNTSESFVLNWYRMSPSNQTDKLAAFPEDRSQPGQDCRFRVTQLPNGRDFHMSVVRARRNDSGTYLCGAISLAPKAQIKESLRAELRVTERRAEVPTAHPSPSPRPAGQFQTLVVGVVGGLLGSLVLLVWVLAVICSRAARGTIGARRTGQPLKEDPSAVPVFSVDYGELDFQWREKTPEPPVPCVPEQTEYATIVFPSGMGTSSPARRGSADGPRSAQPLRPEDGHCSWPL
Chain of MSA (P07724 25-608): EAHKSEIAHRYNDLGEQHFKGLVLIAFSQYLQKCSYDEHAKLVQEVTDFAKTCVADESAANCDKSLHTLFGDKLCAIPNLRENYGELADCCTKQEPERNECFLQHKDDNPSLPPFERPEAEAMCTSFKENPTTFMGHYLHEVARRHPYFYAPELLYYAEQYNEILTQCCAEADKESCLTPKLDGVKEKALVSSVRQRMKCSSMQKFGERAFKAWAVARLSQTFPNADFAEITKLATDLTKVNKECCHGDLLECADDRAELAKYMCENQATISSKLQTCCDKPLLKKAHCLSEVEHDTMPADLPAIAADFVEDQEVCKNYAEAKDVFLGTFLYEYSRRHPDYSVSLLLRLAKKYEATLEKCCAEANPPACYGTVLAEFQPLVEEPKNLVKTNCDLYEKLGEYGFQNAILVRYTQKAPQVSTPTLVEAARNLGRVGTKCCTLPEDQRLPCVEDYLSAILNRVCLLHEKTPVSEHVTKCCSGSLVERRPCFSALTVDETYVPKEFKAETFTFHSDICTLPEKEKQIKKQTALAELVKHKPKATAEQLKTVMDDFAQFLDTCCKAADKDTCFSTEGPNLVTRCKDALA

B1: F023700931 (1PD102C12 (E1D, L11V, A14P, A74S, K83R, I89L)-35GS-1PD102C12 (L11V, A14P, A74S, K83R, I89L)-35GS-F0237611B09 (L11V, A14P, R41P, N43K, A62S, A74S, … (bispecific antibody)
chain: DVQLVESGGGVVQPGGSLRLSCAASGSIASIHAMGWFRQAPGKEREFVAVITWSGGITYYADSVKGRFTISRDNSKNTVYLQMNSLRPEDTALYYCAGDKHQSSWYDYWGQGTLVTVSSGGGGSGGGGSGGGGSGGGGSGGGGSGGGGSGGGGSEVQLVESGGGVVQPGGSLRLSCAASGSIASIHAMGWFRQAPGKEREFVAVITWSGGITYYADSVKGRFTISRDNSKNTVYLQMNSLRPEDTALYYCAGDKHQSSWYDYWGQGTLVTVSSGGGGSGGGGSGGGGSGGGGSGGGGSGGGGSGGGGSEVQLVESGGGVVQPGGSLRLSCAASGRTFSDYVMGWFRQAPGKEREFVAAISESGGRTHYADSVKGRFTISRDNSKNTLYLQMNSLRPEDTALYYCATTLLWWTSEYAPIKANDYDYWGQGTLVTVSSGGGGSGGGGSGGGGSGGGGSGGGGSGGGGSGGGGSEVQLVESGGGVVQPGGSLRLSCAASGRTFSDYVMGWFRQAPGKEREFVAAISESGGRTHYADSVKGRFTISRDNSKNTLYLQMNSLRPEDTALYYCATTLLWWTSEYAPIKANDYDYWGQGTLVTVSSGGGGSGGGGSGGGGSGGGGSGGGGSGGGGSGGGGS[about 120 residues not spelt out]
notes: pentavalent Nanobody fusion: two PD-1 modules, two LAG-3 modules, one anti-albumin module; Pichia or CHO expressed; also called F023700931-CHO-EXP1
- IC50 (read off the curve) [1]: ~0.4 nM
- EC50 (read off the curve) [2]: ~0.3 nM
- Kd [3]: 270 nM
- koff [3]: 0.0084 s⁻¹
- kon [3]: 32000 M⁻¹ s⁻¹
- IC50 (read off the curve) [4]: ~0.4 nM
- EC50 (read off the curve) [5]: ~2 nM
- IC50 (read off the curve) [6]: ~0.6 nM
- EC50 (read off the curve), proximity assay RLU [7]: ~0.09 nM
- EC50 (read off the curve), proximity assay RLU [8]: ~0.09 nM
- Kd [9]: ~4100 nM
- koff [9]: < 0.6 s⁻¹
- kon [9]: > 500000 M⁻¹ s⁻¹
- Kd [10]: 270 nM
- koff [10]: 0.0084 s⁻¹
- kon [10]: 32000 M⁻¹ s⁻¹
- EC50 (read off the curve), IL-2 pg/ml [11]: ~0.7 nM
- EC50 (read off the curve), IL-2 pg/ml [12]: ~0.7 nM
- EC50 (read off the curve) [13]: ~0.2 nM
- EC50 (read off the curve), IL-2 MSD-signal [14]: ~4 nM

B2: F023700933 (1PD102C12 (E1D, L11V, A14P, A74S, K83R, I89L)-35GS-1PD102C12 (L11V, A14P, A74S, K83R, I89L)-35GS-ALB11002-A) (VHH)
chain: DVQLVESGGGVVQPGGSLRLSCAASGSIASIHAMGWFRQAPGKEREFVAVITWSGGITYYADSVKGRFTISRDNSKNTVYLQMNSLRPEDTALYYCAGDKHQSSWYDYWGQGTLVTVSSGGGGSGGGGSGGGGSGGGGSGGGGSGGGGSGGGGSEVQLVESGGGVVQPGGSLRLSCAASGSIASIHAMGWFRQAPGKEREFVAVITWSGGITYYADSVKGRFTISRDNSKNTVYLQMNSLRPEDTALYYCAGDKHQSSWYDYWGQGTLVTVSSGGGGSGGGGSGGGGSGGGGSGGGGSGGGGSGGGGS[about 120 residues not spelt out]
notes: monospecific, bivalent anti-human PD-1 control with anti-albumin module; also called Bivalent SO 1PD102C12 + ALB11002
- IC50 (read off the curve) [1]: ~0.4 nM
- binding result [2]: no binding (tested: 1e-7 M)
- IC50 (read off the curve) [4]: ~0.4 nM
- EC50 (read off the curve) [5]: ~2 nM
- IC50 (read off the curve) [6]: ~0.5 nM

B3: F023700962 (F0237611B09 (E1D, L11V, A14P, R41P, N43K, A62S, A74S, K83R, V89L)-35GS-F0237611B09 (L11V, A14P, R41P, N43K, A62S, A74S, K83R, V89L)-35GS-ALB11002-A) (VHH)
chain: DVQLVESGGGVVQPGGSLRLSCAASGRTFSDYVMGWFRQAPGKEREFVAAISESGGRTHYADSVKGRFTISRDNSKNTLYLQMNSLRPEDTALYYCATTLLWWTSEYAPIKANDYDYWGQGTLVTVSSGGGGSGGGGSGGGGSGGGGSGGGGSGGGGSGGGGSEVQLVESGGGVVQPGGSLRLSCAASGRTFSDYVMGWFRQAPGKEREFVAAISESGGRTHYADSVKGRFTISRDNSKNTLYLQMNSLRPEDTALYYCATTLLWWTSEYAPIKANDYDYWGQGTLVTVSSGGGGSGGGGSGGGGSGGGGSGGGGSGGGGSGGGGS[about 120 residues not spelt out]
notes: monospecific, bivalent anti-human LAG-3 control with anti-albumin module; also called Bivalent SO 611B09 + ALB11002
- EC50 (read off the curve) [2]: ~0.3 nM
- binding result [5]: no binding (tested: about 5e-7 M)
- EC50 (read off the curve) [13]: ~0.2 nM

Where two headings read alike, the source gives them in different places.
